# Some of the results follow.
# B1: Gal 3 (Homo sapiens), P17931 (protein)
# chain: MADNFSLHDALSGSGNPNPQGWPGAWGNQPAGAGGYPGASYPGAYPGQAPPGAYPGQAPPGAYHGAPGAYPGAPAPGVYPGPPSGPGAYPSSGQPSAPGAYPATGPYGAPAGPLIVPYNLPLPGGVVPRMLITILGTVKPNANILDFQRGNDVAFHFNPRFNENNRRVIVCNTKLDNNWGREERQSVFPFESGKPFKIQVLVEPDHFKVAVNDAHLLQYNHRVKKLNEISKLGISGDIDLTSASYTMI
# How the values were obtained:
# Experiment in all cases: glycan array binding signal (z-score within array); higher = stronger binding
# Conditions in all cases: glycan notation: IUPAC condensed, linker removed
# [1] = target: Gal(b1-3)GalNAc(a1-3)[Fuc(a1-2)]Gal(b1-4)GlcNAc
# Procedure, shortened: (§1)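 Glycan array binding is given as a within-array Z-score, which can be read as non-binding when negative. The arrays, 3228 of them, came from the Consortium for Functional Glycomics database and were retained only where the protein sequence was available. Z-scores were averaged across arrays of the same protein sequence at different concentrations or buffers and across linkers.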
# [2] = target: Gal(b1-3)GalNAc(b1-3)Gal(a1-4)Gal(b1-4)Glc
# Procedure, shortened: as §1
# [3] = target: Gal(b1-3)GalNAc(b1-4)Gal(b1-4)Glc
# Procedure, shortened: as §1
# [4] = target: Gal(b1-3)GalNAc(b1-4)[Neu5Ac(a2-3)]Gal(b1-4)Glc
# Procedure, shortened: as §1
# [5] = target: Gal(b1-3)GlcNAc
# Procedure, shortened: as §1
# [6] = target: Gal(b1-3)GlcNAc(a1-6)Gal(b1-4)GlcNAc
# Procedure, shortened: as §1
# [7] = target: Gal(b1-3)GlcNAc(b1-2)Man(a1-3)[Gal(b1-3)GlcNAc(b1-2)Man(a1-6)]Man(b1-4)GlcNAc(b1-4)GlcNAc
# Procedure, shortened: as §1
# [8] = target: Gal(b1-3)GlcNAc(b1-2)Man(a1-3)[Gal(b1-3)GlcNAc(b1-2)Man(a1-6)]Man(b1-4)GlcNAc(b1-4)[Fuc(a1-6)]GlcNAc
# Procedure, shortened: as §1
# [9] = target: Gal(b1-3)GlcNAc(b1-3)Gal(b1-3)GlcNAc
# Procedure, shortened: as §1
# [10] = target: Gal(b1-3)GlcNAc(b1-3)Gal(b1-4)Glc
# Procedure, shortened: as §1
# [11] = target: Gal(b1-3)GlcNAc(b1-3)Gal(b1-4)GlcNAc
# Procedure, shortened: as §1
# [12] = target: Gal(b1-3)GlcNAc(b1-3)Gal(b1-4)GlcNAc(b1-6)[Gal(b1-3)GlcNAc(b1-3)]Gal(b1-4)Glc
# Procedure, shortened: as §1
# [13] = target: Gal(b1-3)GlcNAc(b1-3)Gal(b1-4)[Fuc(a1-3)]GlcNAc(b1-6)[Gal(b1-3)GlcNAc(b1-3)]Gal(b1-4)Glc
# Procedure, shortened: as §1
# [14] = target: Gal(b1-3)GlcNAc(b1-3)GalNAc
# Procedure, shortened: as §1
# [15] = target: Gal(b1-3)GlcNAc(b1-6)Gal(b1-4)GlcNAc
# Procedure, shortened: as §1
# [16] = target: Gal(b1-3)[Fuc(a1-4)]GlcNAc
# Procedure, shortened: as §1
# [17] = target: Gal(b1-3)[Fuc(a1-4)]GlcNAc(b1-2)Man(a1-3)[Gal(b1-3)[Fuc(a1-4)]GlcNAc(b1-2)Man(a1-6)]Man(b1-4)GlcNAc(b1-4)GlcNAc
# Procedure, shortened: as §1
# [18] = target: Gal(b1-3)[Fuc(a1-4)]GlcNAc(b1-2)Man(a1-3)[Gal(b1-3)[Fuc(a1-4)]GlcNAc(b1-2)Man(a1-6)]Man(b1-4)GlcNAc(b1-4)[Fuc(a1-6)]GlcNAc
# Procedure, shortened: as §1
# [19] = target: Gal(b1-3)[Fuc(a1-4)]GlcNAc(b1-3)Gal(b1-3)[Fuc(a1-4)]GlcNAc
# Procedure, shortened: as §1
# [20] = target: Gal(b1-3)[Fuc(a1-4)]GlcNAc(b1-3)Gal(b1-4)GlcNAc
# Procedure, shortened: as §1
# [21] = target: Gal(b1-3)[Fuc(a1-4)]GlcNAc(b1-3)Gal(b1-4)[Fuc(a1-3)]GlcNAc
# Procedure, shortened: as §1
# [22] = target: Gal(b1-3)[GlcNAc(b1-6)]GalNAc
# Procedure, shortened: as §1
# [23] = target: Gal(b1-3)[Neu5Ac(a2-6)]GalNAc
# Procedure, shortened: as §1
# [24] = target: Gal(b1-3)[Neu5Ac(a2-6)]GlcNAc(b1-6)Gal(b1-4)Glc
# Procedure, shortened: as §1
# [25] = target: Gal(b1-3)[Neu5Ac(b2-6)]GalNAc
# Procedure, shortened: as §1
# [26] = target: Gal(b1-4)GalNAc(a1-3)[Fuc(a1-2)]Gal(b1-4)GlcNAc
# Procedure, shortened: as §1
# [27] = target: Gal(b1-4)GalNAc(b1-3)[Fuc(a1-2)]Gal(b1-4)GlcNAc
# Procedure, shortened: as §1
# [28] = target: Gal(b1-4)Glc
# Procedure, shortened: as §1
# [29] = target: Gal(b1-4)Glc6S
# Procedure, shortened: as §1
# [30] = target: Gal(b1-4)GlcNAc
# Procedure, shortened: as §1
# [31] = target: Gal(b1-4)GlcNAc(a1-6)Gal(b1-4)GlcNAc
# Procedure, shortened: as §1
# [32] = target: Gal(b1-4)GlcNAc(b1-2)Man(a1-3)Man(b1-4)GlcNAc(b1-4)GlcNAc
# Procedure, shortened: as §1
# [33] = target: Gal(b1-4)GlcNAc(b1-2)Man(a1-3)[Gal(b1-4)GlcNAc(b1-2)Man(a1-6)]Man(b1-4)GlcNAc(b1-4)GlcNAc
# Procedure, shortened: as §1
# [34] = target: Gal(b1-4)GlcNAc(b1-2)Man(a1-3)[Gal(b1-4)GlcNAc(b1-2)Man(a1-6)]Man(b1-4)GlcNAc(b1-4)[Fuc(a1-6)]GlcNAc
# Procedure, shortened: as §1
# [35] = target: Gal(b1-4)GlcNAc(b1-2)Man(a1-3)[GlcNAc(b1-2)Man(a1-6)]Man(b1-4)GlcNAc(b1-4)GlcNAc
# Procedure, shortened: as §1
# [36] = target: Gal(b1-4)GlcNAc(b1-2)Man(a1-3)[Man(a1-6)]Man(b1-4)GlcNAc(b1-4)GlcNAc
# Procedure, shortened: as §1
# [37] = target: Gal(b1-4)GlcNAc(b1-2)Man(a1-6)Man(b1-4)GlcNAc(b1-4)GlcNAc
# Procedure, shortened: as §1
# [38] = target: Gal(b1-4)GlcNAc(b1-2)Man(a1-6)[GlcNAc(b1-2)Man(a1-3)]Man(b1-4)GlcNAc(b1-4)GlcNAc
# Procedure, shortened: as §1
# [39] = target: Gal(b1-4)GlcNAc(b1-2)Man(a1-6)[Man(a1-3)]Man(b1-4)GlcNAc(b1-4)GlcNAc
# Procedure, shortened: as §1
# [40] = target: Gal(b1-4)GlcNAc(b1-2)[Gal(b1-4)GlcNAc(b1-4)]Man(a1-3)[Gal(b1-4)GlcNAc(b1-2)Man(a1-6)]Man(b1-4)GlcNAc(b1-4)GlcNAc
# Procedure, shortened: as §1
# [41] = target: Gal(b1-4)GlcNAc(b1-2)[Gal(b1-4)GlcNAc(b1-4)]Man(a1-3)[Gal(b1-4)GlcNAc(b1-2)[Gal(b1-4)GlcNAc(b1-6)]Man(a1-6)]Man(b1-4)GlcNAc(b1-4)GlcNAc
# Procedure, shortened: as §1
# [42] = target: Gal(b1-4)GlcNAc(b1-3)Gal(b1-3)GlcNAc
# Procedure, shortened: as §1
# [43] = target: Gal(b1-4)GlcNAc(b1-3)Gal(b1-4)Glc
# Procedure, shortened: as §1
# [44] = target: Gal(b1-4)GlcNAc(b1-3)Gal(b1-4)GlcNAc
# Procedure, shortened: as §1
# [45] = target: Gal(b1-4)GlcNAc(b1-3)Gal(b1-4)GlcNAc(b1-3)Gal(b1-4)GlcNAc
# Procedure, shortened: as §1
binder,measurement,setting,value
B1,glycan array binding signal (z-score),[1],2.57
same,glycan array binding signal (z-score),[2],-0.389
same,glycan array binding signal (z-score),[3],-0.389
same,glycan array binding signal (z-score),[4],-0.391
same,glycan array binding signal (z-score),[5],-0.384
same,glycan array binding signal (z-score),[6],-0.392
same,glycan array binding signal (z-score),[7],-0.083
same,glycan array binding signal (z-score),[8],-0.333
same,glycan array binding signal (z-score),[9],0.585
same,glycan array binding signal (z-score),[10],0.286
same,glycan array binding signal (z-score),[11],1.33
same,glycan array binding signal (z-score),[12],1.46
same,glycan array binding signal (z-score),[13],0.259
same,glycan array binding signal (z-score),[14],-0.39
same,glycan array binding signal (z-score),[15],-0.387
same,glycan array binding signal (z-score),[16],-0.391
same,glycan array binding signal (z-score),[17],-0.384
same,glycan array binding signal (z-score),[18],-0.386
same,glycan array binding signal (z-score),[19],-0.387
same,glycan array binding signal (z-score),[20],-0.386
same,glycan array binding signal (z-score),[21],-0.388
same,glycan array binding signal (z-score),[22],-0.389
same,glycan array binding signal (z-score),[23],-0.375
same,glycan array binding signal (z-score),[24],-0.389
same,glycan array binding signal (z-score),[25],-0.386
same,glycan array binding signal (z-score),[26],2.98
same,glycan array binding signal (z-score),[27],-0.389
same,glycan array binding signal (z-score),[28],-0.393
same,glycan array binding signal (z-score),[29],-0.39
same,glycan array binding signal (z-score),[30],-0.392
same,glycan array binding signal (z-score),[31],-0.37
same,glycan array binding signal (z-score),[32],-0.377
same,glycan array binding signal (z-score),[33],0.966
same,glycan array binding signal (z-score),[34],-0.235
same,glycan array binding signal (z-score),[35],-0.094
same,glycan array binding signal (z-score),[36],-0.347
same,glycan array binding signal (z-score),[37],-0.379
same,glycan array binding signal (z-score),[38],-0.374
same,glycan array binding signal (z-score),[39],-0.386
same,glycan array binding signal (z-score),[40],0.908
same,glycan array binding signal (z-score),[41],2.3
same,glycan array binding signal (z-score),[42],2.35
same,glycan array binding signal (z-score),[43],2.27
same,glycan array binding signal (z-score),[44],3.4
same,glycan array binding signal (z-score),[45],4.37

# — the supplement of paper PMC8728848
